From PubChem BioAssay AID1240 (Sanford-Burnham Center for Chemical Genomics, 2008)
Hit rate of the full screen: of about 50,000 compounds, about 800 (1.6%) showed an effect of 50% or more. The list shows a part of the results.

molecular target: Bcl-2-like protein 10 (Homo sapiens) (UniProt Q9HD36); test: Phenotype converters, Bcl-B/TR3 peptide binding displacement, primary biochemical FP (AID 1240); settings: GST-Bcl-B / FITC-TR3 peptide fluorescence polarization; stronger effect = higher value; compound at 3.75 mg/L;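 note: 0% = Bcl-B with tracer peptide and DMSO and 100% = tracer peptide lacking Bcl-B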
UniProt Q9HD36, sequence (Q9HD36 whole entry, looked up): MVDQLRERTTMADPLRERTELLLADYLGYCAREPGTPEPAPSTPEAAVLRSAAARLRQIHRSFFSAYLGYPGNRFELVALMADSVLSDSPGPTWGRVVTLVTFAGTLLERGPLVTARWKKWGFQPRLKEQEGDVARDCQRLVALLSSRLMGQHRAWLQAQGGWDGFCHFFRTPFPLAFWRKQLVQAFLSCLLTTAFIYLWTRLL

Structure (SMILES)	displacement [%]
C/C(=N\Nc1nnc2c(n1)[nH]c1ccccc12)c1cccs1	36.7
CC(=O)c1ccc(NC(=S)NC(=O)c2ccccc2)cc1	10.6
Cc1ccc(-n2nc3cc(C)c(NC(=O)c4cccc([N+](=O)[O-])c4)cc3n2)cc1	-8.4
C=CCn1c(/N=C/c2ccc(OC)c3cccc(OC)c23)nc2ccccc21	6.9
COc1cc(C=Nc2ccc(C)cc2C)ccc1O	1.6
CC(C)(C)c1ccc(S(=O)(=O)NNc2ccccc2)cc1	-0.9
O=[N+]([O-])c1ccc2nccc(Cl)c2c1	14
COc1cccc(NC(=O)c2ccccc2C(F)(F)F)c1	2
O=C1CC(c2ccccc2)CC2=C1C(c1cc(Br)ccc1F)Nc1ccccc1N2 (configuration not stated)	6.4
Cc1cc(I)ccc1NC(=O)COc1ccc(Br)cc1	6.5
COc1cccc(NC(=O)c2ccc(CN3CCc4ccccc4C3)cc2)c1	28.6
Cc1ccccc1NC(=O)C(C)NC(=O)C12CC3CC(CC(C3)C1)C2 (configuration not stated)	-4.2
COc1ccc(/C=N\N2CCN(c3ccccc3OC)CC2)cc1OC	-6.7
COc1ccc2ccccc2c1/C=C(\C#N)C(=O)NCC1CCCO1 (configuration not stated)	-13.8
CC1=CC(C)(C)N(C(=O)CN2C(=O)c3ccccc3C2=O)c2cc(C)ccc21	2.6
COc1ccc(-c2nc(-c3ccccn3)no2)cc1OC	2.4
CCOC(=O)c1sc(NC(=O)C2CCCCC2C(=O)O)nc1C (configuration not stated)	-8.9
COc1cc(C(=O)NCc2ccccc2F)cc(OC)c1OC	-2.9
Cc1nc(NC(=O)C2C3CCC(C3)C2C(=O)O)sc1-c1ccccc1 (configuration not stated)	-5.1
O=C1NN(c2ccccc2)C(=O)/C1=C/c1c(Cl)cccc1Cl	18.4
CC(=O)NCC(O)(c1ccc(C)cc1)c1ccc(C)cc1	-14.1
COc1ccc(Oc2coc3c(CN4CCOCC4)c(O)ccc3c2=O)cc1	0.1
CCOC(=O)C1=C(C)N(c2ccccc2)C(C)=C(C(=O)OCC)C1c1ccc([N+](=O)[O-])cc1	16.7

Structure (SMILES)	displacement [%]
COc1ccc(Oc2ccc(Oc3ccc(OC)cc3)cc2)cc1	14.6
CSc1ccc(C2NC(=O)CCC2[N+](=O)[O-])cc1 (configuration not stated)	-9.5
CCOc1ccc(N(CC(=O)Nc2ccc(C)cc2C)S(=O)(=O)c2ccc(SC)cc2)cc1	0.6
COCC(O)Cn1c2ccccc2c2ccccc21 (configuration not stated)	-7.8
COc1ccccc1C(=O)Nc1nc(C)c(C(C)=O)s1	2.4
COc1ccccc1NC(=O)C1=C(C)NC(=O)NC1c1cc(C)cs1 (configuration not stated)	-1.9
CC1CC(C)(C)CC2(C1)NC(=S)N(c1ccccc1)N2 (configuration not stated)	-5.8
Fc1ccc(CNC(=S)Nc2ccc(Cl)cc2Cl)cc1	-5.1
CCCC(=O)Nc1cccc(-c2nc3ccccc3s2)c1	-15.3
O=C(Nc1cccnc1)C1CC2CCC1C2 (configuration not stated)	14.8
O=C1CC(NCCCc2ccccc2)C(=O)N1c1ccc(Cl)cc1 (configuration not stated)	-3.8
COc1ccc(C2CC(=O)CC(=O)C2)cc1	5.9
Cc1ccc(C(=O)O/N=C(/N)c2nonc2N)cc1	5.6
COc1ccc(C(=O)CC(Nc2ccc(Br)cc2)c2ccc(F)cc2)cc1 (configuration not stated)	-18.5
O=C(CCCN1C(=O)/C(=C/c2ccccc2)SC1=S)Nc1ccccc1C(=O)O	2
O=C1N=C(N2CCCC2)S/C1=C\c1ccc([N+](=O)[O-])cc1	-22.4
CCOC(=O)C1=C(C)NC(=O)NC1c1cc(OC)c(OC)cc1OC (configuration not stated)	8.7
CCOc1ccc(NC(=O)C2=C(C)NC(=O)NC2c2ccc(Cl)cc2Cl)cc1 (configuration not stated)	-2.1
CCOC(=O)c1cn(-c2ccc(F)c(F)c2)c2c(F)c(F)c(F)c(F)c2c1=O	-21.1
N/C(=N\OC(=O)c1ccc(Br)cc1)c1ccncc1	5.1
O=C1c2cccc3cccc(c23)C(=O)N1CCN1CCN(S(=O)(=O)c2ccc(Cl)cc2)CC1	-8.5
O=c1[nH]c(=O)n(-c2ccccc2Cl)c(O)c1C=Nc1ccc2c(c1)OCO2	7.6
CC1(C)CC(=O)c2cc(-c3ccccc3)n(CC(=O)OCN3C(=O)c4ccccc4C3=O)c2C1	7.1

Structure (SMILES)	displacement [%]
COc1cc([N+](=O)[O-])cc(/C=C2/C(=O)NC(=O)N(c3ccc(C)cc3)C2=O)c1O	9.4
Cc1[nH]n(-c2ccccc2)c(=O)c1C=Nc1cccc(Cl)c1	-3
CC(=O)N1c2ccccc2CCc2ccc(N)cc21	-2
Cc1ccc(-n2nc3cc(C)c(NC(=O)c4oc5ccccc5c4C)cc3n2)cc1	14
COc1ccc(C2=C/C(=C3\OC(=O)c4ccccc43)C(=O)O2)cc1OC	-48.1
O=C(O)c1ccccc1C(=O)OCCCC(F)(F)C(F)(F)F	-7.3
O=C1S/C(=C/c2ccc(Cl)cc2Cl)C(=O)N1CN1CCCCC1	12.4
S=C(NCCC(c1ccccc1)c1ccccc1)Nc1ccc(Cl)cc1	-12.3
O=C(Nc1ccc(Sc2ccccc2[N+](=O)[O-])cc1)c1ccccc1	-13.5
COc1ccc(NC(=O)c2cc([N+](=O)[O-])ccc2N2CCOCC2)cc1	-1.7
Cc1ccc(/C=C/C(=O)N2CCN(c3ccccc3)CC2)o1	3.6
COc1ccc(CNC(=O)CSc2ccccn2)cc1	5.6
COc1ccc(CSc2ncn[nH]2)cc1	4.6
C=CCNC(=S)N1CCN(CCNC2=CC(=O)CC(C)(C)C2)CC1	-10.1
COC(=O)c1ccc(C(=O)OC)c(NS(=O)(=O)c2ccc(NC(C)=O)cc2)c1	8.6
CC1(C)C(c2ccccc2)=NC(c2ccc(F)cc2)N1O (configuration not stated)	0.3
Cc1c(Cl)cccc1NC(=O)c1cc2nc(-c3cccs3)cc(C(F)(F)F)n2n1	12.7
COc1ccc(S(=O)(=O)N(CC(=O)NCc2ccccc2)Cc2ccccc2)cc1	-3.2
Cc1cc(OCC(N)=O)ccc1Cl	8.2
COc1ccccc1/C=C1\SC(=S)N(NC(=O)c2ccccc2O)C1=O	0.3
O=[N+]([O-])c1cc(-c2nnc(-c3ccc(Br)o3)o2)cc([N+](=O)[O-])c1	-9.2
CCOCCOC(=O)c1ccc(NC(=O)COc2ccc(C)cc2C(C)(C)C)cc1	-7.9
COc1ccc(C(=O)NNC2=Nc3cccc4cccc2c34)cc1	-17.1

Structure (SMILES)	displacement [%]
C=CCc1ccccc1OCC(=O)N/N=C/c1cccc(I)c1	0
COc1ccc2c(c1OC)C(=O)OC2Nc1cccc(F)c1 (configuration not stated)	-0.4
Cc1cccc(NC(=O)COc2ccccc2)n1	13.2
O=C1C=CC(=O)N1c1ccc(Cc2ccc(N3C(=O)C=CC3=O)c(Cl)c2)cc1Cl	0.5
CCCCc1ccc(NC(=O)c2ccc([N+](=O)[O-])o2)cc1	-6.4
COc1ccc(OC(C)C(=O)Nc2ccccc2Cl)cc1 (configuration not stated)	9.5
O=C(c1ccco1)N1CCN(C2CCC(c3ccccc3)CC2)CC1 (configuration not stated)	0.3
C=CCOCCN(CCOCC=C)C1=NS(=O)(=O)c2cc([N+](=O)[O-])ccc21	5
CCCOc1cccc(C(=O)Nc2ccc(F)cc2)c1	-1.9
Nc1nc(-c2ccc(F)c(F)c2)cs1	-8.4
Cc1ccc2nc(-c3ccc(NC(=O)c4cccc(Cl)c4Cl)cc3)sc2c1	-0.5
COc1c(Cl)cc(C(=O)Nc2ccc(Cl)c(-c3nc4ccccc4o3)c2)cc1Cl	2.3
CSc1nc2c(cc1C#N)CCCC2	-7.3
Cc1ccc(CNC(=O)C(=O)Nc2cccc(C(F)(F)F)c2)cc1	5.4
Clc1ccc(-c2ccc(/C=N/Nc3nc4ccccc4s3)o2)cc1	1.8
COc1ccc([N+](=O)[O-])cc1NC(=O)c1ccc(N(C)C)cc1	3
O=C(/C=C/c1ccco1)Nc1cc(Cl)ccc1C(=O)O	11.6
O=c1c([N+](=O)[O-])c(NC2CCCCC2)c2ccccc2n1-c1ccccc1	13.4
C=CCNC(=O)COc1ccc2ccccc2c1	7
O=C1Nc2ccccc2C1=Cc1nc2ccccc2c(=O)n1-c1cccc([N+](=O)[O-])c1	3.3
O=C(Nc1ccc(Nc2ccccc2)cc1)c1cccc(I)c1	12.6
CCCC(=O)Nc1ccc(Br)cn1	-4.2
O=C1c2ccc3c4c(ccc(c24)C(=O)N1c1ccccc1O)C(=O)N(c1ccccc1O)C3=O	6.8

Structure (SMILES)	displacement [%]
CC1CCC(N2CCN(C3CCN(Cc4ccccc4)CC3)CC2)CC1 (configuration not stated)	-0.4
CCOC(=O)N1CCN(c2cc(C)c(C(C)=O)cc2F)CC1	-5
COc1ccc(S(=O)(=O)N(CC(=O)NCc2ccco2)Cc2ccccc2)cc1OC	13.4
COc1ccc(Br)cc1C(=O)Nc1cc(Cl)cc(Cl)c1	15.4
CCOC(=O)C1CCN(C(=O)c2ccccc2Br)CC1	-3.4
CC1CCC2(CC1)NC(=S)c1c(sc3c1CCC(C)C3)N2 (configuration not stated)	-14.8
O=C1NC(=S)NC(=O)C1=Cc1ccc(Oc2ccc([N+](=O)[O-])cn2)cc1	10.5
Cc1ccccc1CC1S/C(=N\N=C\c2ccco2)NC1=O (configuration not stated)	21.2
CC(=O)Oc1ccc(C(=O)Nc2ccc3c(c2)C(=O)N(c2ccccc2)C3=O)cc1	5.3
CCCc1ccc(-c2nc(Cc3c(F)cccc3Cl)no2)cc1	12.4
COc1ccccc1N1C(=O)/C(=C/c2cccc(Cl)c2)SC1=S	11.4
CCc1c(C)sc(NC(=O)c2sc3ccccc3c2Cl)c1C#N	44.7
CCOC(=O)C1=C(O)CSC1=Nc1ccc([N+](=O)[O-])cc1	112
CC1=C(C(=O)OCCc2ccccc2)C(c2ccc(Cl)c([N+](=O)[O-])c2)C2=C(CCCC2=O)N1 (configuration not stated)	4.5
N#C/C(=C/c1ccc(I)o1)c1nc2ccccc2[nH]1	6.1
C#CC(C)(C)NC(=O)CN(c1cc(Cl)ccc1OC)S(=O)(=O)c1ccc(C)c([N+](=O)[O-])c1	10.3
O=C1c2ccccc2C(=O)N1CC#CCN1CCN(C(c2ccccc2)c2ccccc2)CC1	-11.8
CCC1(C)NC(=S)N2N1C(=S)NC2(C)CC (configuration not stated)	0.6
COC(=O)Cn1c(=N)n(Cc2ccc(C)cc2)c2ccccc21	-3
Cc1ccc(-c2ccc(OCC(=O)NC(C)c3ccccc3)cc2)cc1 (configuration not stated)	-2.5
